# Results reported in PubChem BioAssay AID624296 (National Center for Advancing Translational Sciences (NCATS), 2012).
# Hit rate of the full screen: of about 350,000 compounds, about 9,900 (2.8%) were called active. Inconclusive means that the source gave no clear call. Such entries were picked first, then a sample of the others. Calls come from the whole dose curve; as a rule, active = well fitted activation curve with a large enough effect; inconclusive = small, poorly fitted or top-dose-only effect; inactive = no such curve, though single readings can be large or run the other way. Potencies of inconclusive entries are left out as doubtful fits.
# Test: A quantitative high throughput screen for small molecules that induce DNA re-replication in MCF 10a normal breast cells. For activity, positive = re-replication: % of control where 0% means no effect. Note: nearly all actives have a fitted effect of over 50% in size.
# Details: MCF 10A DNA re-replication, Hoechst nuclear intensity, 48 h; activity, positive = re-replication: at 46.1 µM (top of the series)
# Potency is the fitted concentration of half-maximal effect; tags give direction and shape of the fitted curve.
SMILES,Potency,"activity, positive = re-replication"
CCOC(=O)c1c(C=O)c(C)n(Cc2ccc(Cl)cc2)c1C,active: 11.6 µM,–
CCn1c(-c2ccco2)n[nH]c1=S,–,inactive: -2.3%
O=C1C(CN2CCCC2)CCCC1CN1CCCC1 (stereo not drawn),"inconclusive [activator, single point]",–
CC1CCN(C(=S)Nc2ccc3nc4n(c(=O)c3c2)CCCCC4)CC1,"inconclusive [activator, full curve]",–
CS(=O)(=O)Nc1cccc(-c2cn3c(n2)SCC3)c1,"inconclusive [activator, partial curve, poor fit]",–
COc1nnc(-c2ccc(C)c(S(=O)(=O)NC(C)C)c2)c2ccccc12,"inconclusive [activator, partial curve, poor fit]",–
CC(C)Cc1nc(N2CCN(C(=O)C(C)C)CC2)c(C#N)c2c1CCC2,"inconclusive [activator, single point]",–
Cc1cccc(N2CCN(C(=O)c3cccc(N4C(=O)C5CC=CC(C)C5C4=O)c3)CC2)c1C (stereo not drawn),"inconclusive [activator, single point]",–
Cc1ccc(S(=O)(=O)N(CC(=O)N/N=C/c2ccccc2C(=O)O)c2cc(Cl)cc(Cl)c2)cc1,"inconclusive [activator, single point]",–
O=C(Nc1ccccc1)C1CC2CCC1C2 (stereo not drawn),"inconclusive [activator, single point]",–
Cc1[nH]c(C)c(S(=O)(=O)NCc2ccc(F)cc2)c1C(=O)N1CCCCC1,–,inactive: 8.35%
O=C(Nc1ccccc1C(=O)O)c1ccc2ccccc2n1,"inconclusive [activator, partial curve, poor fit]",–
COc1ccc(CN2CCN(Cc3ccc(C)cc3)CC2)c(OC)c1,"inconclusive [activator, partial curve, poor fit]",–
O=C(c1ccccc1)N(Cc1ccc(F)cc1)Cc1nc2ccccc2c(=O)[nH]1,"inconclusive [activator, full curve, poor fit]",–
CCCCNc1c(-c2ccc(SC3CCCCC3)cc2)nc2ccccn12,"inconclusive [activator, partial curve, poor fit]",–
Cc1[nH]c2ccccc2c1C(=O)CSc1ccc(Cl)cc1,"inconclusive [activator, single point]",–
CN(C)CCCN(C(=O)c1ccc(Cl)s1)c1nc2cc3c(cc2s1)OCO3,"inconclusive [activator, single point]",–
Cc1ccn2cc(-c3nonc3C)cc2c1,"inconclusive [activator, single point]",–
